The full ranking holds about 13,000 compounds; the median of “IFI” is about 4, and the highest 2% start at about 17. This is one part of the list.
Test: GSK_TCMDC: Inhibition Frequency Index (IFI). The number of non-kinase HTS assays where a compound showed > 50 % inhibition, expressed as a percentage of the number of such assays in which the compound was tested (-0 is zero)
Format: functional

Compound	IFI
CCc1cn2c3c(cc(C(=O)N[C@@H](Cc4ccccc4)[C@H](O)CNC(C)(C)CCCC(C)C)cc13)N(C)S(=O)(=O)C2	15.7%
FC(F)c1nc2ccccc2n1-c1nc(N2CCOCC2)nc(N2CCOCC2)n1	0%
CCCNCc1ccc(-c2ccc(CN(CCOC)C(=O)CCc3ccc(OC)cc3)cc2)nc1	1.52%
CC(=O)Nc1sc(C)c(C)c1CN1CCc2ccccc2C1	2.52%
Oc1ccc(C2CNCCc3c2cc(O)c(OCc2ccccc2)c3Cl)cc1 (stereo not drawn)	13.3%
N#Cc1ccc(-c2ccc(C(=O)Nc3ccc4c(c3)CCN(C3CCC3)CC4)nc2)cc1	4.62%
COc1ccc(NC(=O)c2cc(-c3ccc(NC(C)=O)cc3)cnc2N)cc1	1.41%
Nc1ncc(-c2ccc(S(=O)(=O)Nc3ccc(C(=O)N[C@@H](CCC(=O)O)C(=O)O)cc3)cc2)c(=O)[nH]1	0.85%
CCN(CC)CCNc1ccnc2[nH]c3ccc(Cl)cc3c12	7.46%
COc1ccc(CN(C)CCOc2ccc(NC(=O)c3cccc4c(=O)c5cc(SC)ccc5[nH]c34)cc2)cc1OC	10.3%
O=C(Nc1cccc(CN2CCCN(CC3CC3)CC2)c1)c1ccc(Cl)c(Cl)c1	2.7%
Oc1c(Br)cc2oc3c(c2c1CNCc1ccccc1)CCCC3	4.13%
Nc1cc2c(C3CCN(CC4CCN(C(=O)/C=C/c5ccc(Cl)c(Cl)c5)CC4)CC3)c[nH]c2cn1	6.29%
CCCCN(CCCC)CCNC(=O)c1cc(OC(F)(F)F)ccc1O	0.74%
COc1ccc(OCC(=O)Nc2nc(-c3ccc(OC)cc3)c(C)s2)cc1	1.85%
Cc1cccc2nc(-c3cccc(-c4ccc(NC(=O)C5CCCO5)cc4)c3)[nH]c12 (stereo not drawn)	5.31%
CC(C)(C)OC(=O)N1CCC(C2CCN(C(=O)OC(C)(C)C)CC2)CC1	-0%
COc1cc(C)ccc1N1CCN(CCCCNC(=O)c2ccc(NC(=O)c3ccc(Cl)cc3)cc2)CC1	4.5%
CN(C)c1cc(NC(=O)Nc2ccccc2)c2ccccc2n1	4.05%
CC(=O)c1ccc(Nc2c(C(N)=O)cnc3cc(-c4c(C)noc4C)ccc23)cc1	0.81%
COc1ccc2c(NN=Cc3ccccc3Cl)ccnc2c1	1.42%
Cn1ncc2c3c(CCN4CCC(NCc5cc6c(cn5)OCC6)CC4)c(Cl)cnc3ccc21	3.7%
COc1nc(Nc2cccc(C)c2)nc(OC)n1	0.75%
Nc1cc(/C=C/c2ccc([N+](=O)[O-])o2)nc2ccccc12	16.7%

Compound	IFI
COc1ccccc1-c1nc2c(ccc3nc(N)nc(N)c32)[nH]1	9.76%
O=C(NCCCCCN1CCC(c2c[nH]c3ccccc23)CC1)Nc1ccc(Cl)c(Cl)c1	3.97%
Oc1ccc(CCNc2nc(NCCCOc3ccccc3-c3cccc(C(F)(F)F)c3)nc(N3CCNCC3)n2)cc1	10.5%
CC(C)(C)c1ccc(NC(=O)c2ccc(CN3CCCN(Cc4cccc(Cl)c4)CC3)cc2)cc1	17.2%
CCc1cn2c3c(cc(C(=O)N[C@@H](Cc4ccccc4)[C@H](O)CNC(C)(C)c4cccc(OC)c4)cc13)N(C)S(=O)(=O)C2	6.43%
O=C(/C=C/c1ccc(Cl)c(Cl)c1)NCCCCCN1CCC(C(=O)Nc2ccc(Cl)c(Cl)c2)CC1	13.9%
COc1ccc(-c2csc(C(=O)NC3CCC(N4CCC(c5ccccc5C)CC4)CC3)c2)cc1 (stereo not drawn)	14%
Cc1nnc2c(NC(=O)NC(C)C)cc3cc(-c4ccc(CN5CCCCC5)cc4)ccc3n12	10.5%
Cc1[nH]c(C)c(-c2ccc(-c3ccc(C(F)(F)F)cc3C(F)(F)F)nc2)c(=O)c1Br	2.56%
O=C(Nc1ccc(Cl)cc1)Nc1ccc(OCC(O)CN2CCCCC2)cc1 (stereo not drawn)	2.04%
COc1ccc2c(NN=CC=Cc3ccccc3)ccnc2c1	4.58%
O=C(c1cc(-c2cccs2)n[nH]1)N1CCN(S(=O)(=O)c2ccc(Cl)s2)CC1	6.98%
COc1cc2nc(N3CCC(CNC(=O)c4ccc(-c5ccc(C(=O)N(C)C)cc5)c(OCCO)c4)CC3)nc(N)c2cc1OC	0.91%
CCCCCOc1ccc(C(=NC)N(CCCCC)CCCCC)c2ccccc12	25.2%
Cc1cc(-c2cccc(CNC3CCN(C)CC3)c2)ccc1S(=O)(=O)NC1CCC1	7.48%
CC(C)CC(C)NC(=O)C1Cc2c([nH]c3ccc(F)cc23)C2(CCN(Cc3ccccc3)CC2)N1 (stereo not drawn)	5.8%
CN(CCCNCc1cccc2ccccc12)CCCNCc1cccc2ccccc12	12.6%
FC(F)(F)c1ccc2c(NCCc3ccccc3)ccnc2c1	2.22%
CCCCCCCCc1c(C)nc(C)c(C#N)c1O	5.07%
CC(CCCC(=O)Nc1ccc(CC(C)NCCc2cccc(Cl)c2)cc1)NCCc1cccc(Cl)c1 (stereo not drawn)	11.9%
CCCCCN1CCCN(Cc2cccc(NC(=O)c3ccc(Cl)c(Cl)c3)c2)CC1	5.41%
COc1ccc(NS(=O)(=O)c2cc(NC(=O)Cn3ccccc3=O)ccc2N2CCCCC2)cc1	-0%
Nc1nccc2ccc(OC3CCCCC3)cc12	5.41%
CCN(CC)CCN(Cc1ccc(-c2ccc(C(F)(F)F)cc2)cc1)C(=O)Cn1cc(CCCc2cccc(F)c2F)c(=O)c2ccccc21	5.15%

Compound	IFI
COc1cc(Cc2cnc(N)nc2N)c2ccsc2c1OC	0%
Cc1ccc(NC(=O)Nc2ccc(Cl)c(C(F)(F)F)c2)cc1-c1ccc(C(=O)NCCN2CCOCC2)cc1	13.2%
CCCNC(=O)Nc1cc2cc(-c3ccc(CN4CCCC4)cc3)ccc2n2c(C)nnc12	5.56%
COc1ccc(CNCc2cccc(-c3ccc(-c4nc5ccccc5[nH]4)s3)c2)cc1	7.69%
COc1cccc(-c2nn(C)c3sc(C(=O)Nc4cccnc4)cc23)c1	-0%
CC(CN1CCN(C)CC1)C(=O)Nc1cccc(-c2cccc(-c3nc4ccccc4[nH]3)c2)c1 (stereo not drawn)	-0%
CC(C)Cn1ncc2c3c(N)nc(N)nc3ccc21	2.1%
CN(CCCNC(=S)NC12CC3CC(CC(C3)C1)C2)CCCNc1ccnc2cc(Cl)ccc12	7.46%
FC(F)(F)c1ccc2c(NCCCNc3ccnc4cc(C(F)(F)F)ccc34)ccnc2c1	3.25%
Clc1ccc(Nc2nc(-c3ccccn3)cs2)nc1	9.59%
CCN(CC)CCN(Cc1ccc(-c2ccc(C(F)(F)F)cc2)cc1)C(=O)Cn1c(CCc2cccc(F)c2F)c(C)c(=O)c2ccccc21	5.88%
CC(C)CC1c2[nH]c3ccccc3c(=O)c2CN1C(=O)OC(C)(C)C (stereo not drawn)	1.57%
COc1cc2nc(NCC3CCCO3)n3nc(-c4ccccc4)nc3c2cc1OC (stereo not drawn)	-0%
O=C(Nc1cccc(-c2nn3ncccc3c2-c2ccnc(Nc3ccc(N4CCOCC4)cc3)n2)c1)c1c(F)cccc1F	5.51%
COc1ccc(NC(=O)/C=C/c2ccc(-c3ccc(-c4noc(C)n4)cc3)cc2)cc1OCCN(C)C	2.96%
CCCCCOc1c(CCC)cc(Cc2cnc(N)nc2N)cc1CCC	11%
c1ccc2[nH]c(-c3ccc(-c4ccc(CNCC5CCCO5)cc4)s3)nc2c1 (stereo not drawn)	6.86%
Cc1cc(NC(=O)Nc2ccc3ncccc3c2)c2ccccc2n1	0.71%
Cc1nc(C)c(-c2ccc(Sc3ccc(Cl)cc3)cc2)c(O)c1Br	3.82%
CCCc1cc2c3c(N)nc(N)nc3ccc2n1CC	4.24%
Nc1ccn([C@@H]2O[C@H](COC(c3ccccc3)(c3ccccc3)c3ccccc3)[C@@H](O)[C@@H]2O)c(=O)n1	0%
CCCCCCCC1CC(CC(=O)Nc2ccnc3ccc(OC)cc23)CN1 (stereo not drawn)	6.82%
COc1ccc(C(=C(C)CC(C)C(=O)O)c2ccccc2)cc1 (stereo not drawn)	1.46%
c1ccc(CN2CCC(NCc3cccc(-c4cncc5ccccc45)c3)CC2)cc1	8.2%

Compound	IFI
Clc1ccccc1CN1CCC(NCc2cccc(-n3ccnc3)c2)CC1	-0%
C=CCc1cc(C2CCN(CCCCNC(=O)c3ccc(-c4ccc(C#N)cc4)cc3)CC2)c(OCC(N)=O)c2c1CCCC2	8.33%
COc1ccc(F)cc1-c1ccccc1CNC(=O)CN(C)S(=O)(=O)c1cc(C)cc(Cl)c1C	2.86%
COc1ccc2c(=NN=Cc3cccc(F)c3)cc(C)[nH]c2c1	3.76%
Cc1nn(C)c(C)c1CN(Cc1nc(-c2cccc(Oc3ccccc3)c2)oc1C)C1CC1	4.88%
O=[N+]([O-])c1ccc2ncnc(Nc3ccc(F)c(Cl)c3)c2c1	1.36%
COc1ccc2c(NN=Cc3ccccc3)ccnc2c1	-0%
Oc1ccccc1CN1CCN(C(c2ccccc2)c2ccccc2)CC1	2.02%
CC(C)NCc1ccc(-c2cccc(NC(=O)c3cccc(C#N)c3)c2)cc1	1.96%
COc1ccc(CN2CCCC(C(=O)c3ccc(C(F)(F)F)cc3)C2)c(O)c1 (stereo not drawn)	4.65%
CC1N=C(N)N=C(N)N1OCc1cccc2ccccc12 (stereo not drawn)	3.6%
CCN(CC)CCN(Cc1ccc(-c2ccc(C(F)(F)F)cc2)cc1)C(=O)Cn1cc(Cc2cnn(C)c2)c(=O)nc1/C=C/c1cccc(F)c1F	6.62%
COc1cc(C(=O)Nc2cccc(-c3cn4cccc(C)c4n3)c2)cc(OC)c1OC	2.76%
CC(=O)Nc1cccc(C(=O)Nc2cccc(-c3cccc(-c4nc5cc(F)ccc5[nH]4)c3)c2)c1	4.42%
Cn1c(-c2ccccc2)cc2c3c(N)nc(N)nc3ccc21	9.42%
CN(C)CCCNc1nccc(N(C)c2ccc(NC(=O)Nc3cc(C(F)(F)F)ccc3F)cc2)n1	7.35%
Cc1cccc2nc(-c3cccc(-c4cccc(CN5CCN(c6ccc(C#N)cn6)CC5)c4)c3)[nH]c12	-0%
Cc1cc(N2CCNCC2)c2cc(NC(=O)Nc3ccc(Cl)c(Cl)c3)ccc2n1	4.29%
Oc1ccccc1CN(CCCN(Cc1ccccn1)Cc1ccccc1O)Cc1ccccn1	3.82%
Cc1cc(NCC(c2ccccc2)c2ccccc2)nc(NCc2ccc(C(F)(F)F)cc2)n1	12.1%
Cc1cc2[nH]c(-c3ccc(C(=O)NCCCN4CCN(c5cccc(Cl)c5)CC4)s3)nc2cc1Cl	0.74%
